Source: PubChem BioAssay AID624171 (National Center for Advancing Translational Sciences (NCATS), 2012)
In all, about 410,000 compounds went through this assay and about 1,200 (0.29%) were called active. The inconclusive results got no clear call from the source; some entries with a clear call stand among them for comparison. Calls come from the whole dose curve; as a rule, active = well fitted activation curve with a large enough effect; inconclusive = small, poorly fitted or top-dose-only effect; inactive = flat fitted curve, though single readings scatter. Potencies beside an inconclusive call are fits to weak or partial responses and may not hold up.

Test: qHTS of Nrf2 Activators; note: nearly all actives have a fitted effect of over 65% in size
Conditions: AREc32 ARE-luciferase reporter (MCF7-derived line), luminescence, 24 h; series mostly up to 46.1 µM
Summary of the method: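 Cells of the AREc32 ARE-luciferase line are plated in OPTI-MEM containing 5% FBS and left overnight at 37 deg C. Compounds are pinned in, incubation continues 24 hr, and firefly luciferase signal is then measured.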
Potency is the fitted concentration of half-maximal effect; tags give direction and shape of the fitted curve.

Potency, inactive:
CS(=O)(=O)NCCc1csc2nc(-c3ccccc3)nn12, O=C(O)c1cnc(-c2ccccc2)nc1Sc1ccc(Cl)cc1, Cc1c(C(=O)Nc2ccc(S(=O)(=O)N(C)C3CCN(C)CC3)cc2)oc2c(Cl)cccc12, COc1ccc(C(C)C)cc1-c1cccc2nncn12, CCOc1ccc(S(=O)(=O)c2cn(C)c3ccccc3c2=O)cc1, OCC1(Cc2ccccc2)CCN(Cc2cnc(-c3ccc(Cl)cc3)nc2)CC1, Cc1cccc(N2CCN(CCCNC(=O)c3sc4ncccc4c3-n3cccc3)CC2C)c1 (configuration not stated), CC1CCCC(C)N1C(=O)Cc1ccccc1 (configuration not stated), O=C1NC[C@@H](CCCCN2C[C@H](Cc3ccc(O)cc3)N(CCC3CCCCC3)C(=O)C2=O)N(CCc2ccc(O)cc2)C1=O, CCO[C@@H]1OC(C(=O)O)=C[C@H](C2CCCCC2)[C@H]1CCCO, CCCCNC(=O)C1c2ccccc2OCC(=O)N1CC(F)(F)F (configuration not stated), CCOc1ccc(C(=O)Nc2ccccc2C(=O)OCc2cc(=O)n3nc(C4CC4)sc3n2)cc1, CC(C)OC(=O)c1cn(-c2ccccc2)nc1-c1ccc2c(c1)OCCO2, CCOC(=O)N1CCc2c(sc3c2c(=O)n(-c2ccc(Cl)cc2)c(=O)n3Cc2cccc(OC)c2)C1, Cc1cc(C)c(NC(=O)Cn2c(=O)n(Cc3ccc4c(c3)OCO4)c(=O)c3ccccc32)c(C)c1, CC1(C)Cc2ccccc2C(/C(=N\Nc2cccc(Cl)c2)C(N)=O)=N1, Cc1nnc(NCc2ccccc2)c2ccccc12, CCN1CCC[C@H]1CNC(=O)c1c(O)c(Cl)cc(Cl)c1OC, COCCCN(C(=O)CCSc1ccc(F)cc1)c1c(N)n(Cc2ccccc2)c(=O)[nH]c1=O, CCOC(=O)CNC(=O)c1ccc(-c2nn(C)c(=O)c3ccccc23)cc1, COc1ccc(NC(=O)c2cccc(N3C(=O)c4ccc(C(=O)Nc5ccc(OC)c(O)c5)cc4C3=O)c2)cc1O, O=C(N/N=C/c1ccncc1)c1ccccc1[N+](=O)[O-], O=c1[nH]c(=S)[nH]c2c1C(c1ccc(F)cc1)OC(CCc1ccccc1)C2 (configuration not stated), CSc1ccc(/C=N/n2c(C)nnc2C)cc1, COc1cccc(Cl)c1NC(=O)N1CCN(c2ccnc3cc(Cl)ccc23)CC1, CCOC(=O)N1CCC(n2c(SCC(=O)Nc3ccccc3OC)nc3ccccc3c2=O)CC1, COc1ccc(Nc2oc(COc3ccc(Cl)cc3)nc2C#N)cc1

Potency, inconclusive:
COc1ccc(OC)c(NC(=O)c2c(NCc3ccc(C)o3)sc3c2CCCCC3)c1 35.5 µM [activator, single point], COCCSc1nnc(NC(=O)CCS(=O)(=O)Cc2ccccc2)s1 15.8 µM [activator, single point], Cc1nnc(SCCC(=O)Nc2nc(-c3ccccc3)ns2)s1 14.1 µM [activator, partial curve, poor fit], OCCCCC#Cc1c(-c2ccsc2)sc2ccccc12 7.94 µM [activator, partial curve], CCOC(=O)c1c(NC(=O)/C=C/c2ccco2)sc(C)c1C 17.8 µM [activator, partial curve, poor fit], O=C(/C(=C/O)N=Nc1ccc(Cl)cc1)c1ccncc1 35.5 µM [activator, partial curve, poor fit], Cc1ccc(-n2cc3ccc([N+](=O)[O-])cc3n2)cc1 15.8 µM [activator, partial curve, poor fit], COc1ccc(/C=C/C(=O)c2ccc(OC)cc2OC)cc1 31.6 µM [activator, single point], Cc1ccc(C2c3[nH]c4ccccc4c3C[C@H]3C(=O)N(c4ccccc4C(=O)NCCCN4CCOCC4)C(=O)N23)cc1 (some centres not stated) 31.6 µM [activator, single point], N#C/C(=C1/C(=O)Nc2ccc(Br)cc21)c1ccccn1 1.41 µM [activator, full curve, poor fit], Cn1c(NC(=O)/C=C/c2c(F)cccc2Cl)cc(=O)n(C)c1=O 0.891 µM [activator, full curve, poor fit], Cc1ccccc1CN1C(=O)CS/C1=N/N=C/c1ccco1 1.41 µM [activator, partial curve, poor fit], O=C1C(Cl)=C(N2CCOCC2)C(=O)N1c1ccc(Br)cc1 28.2 µM [activator, single point], O=C(CN1CCOCC1)N/N=C/C(Br)=C\c1ccccc1 22.4 µM [activator, single point], CC1CCCCN1CCCNC(=O)c1ccc2c(c1)sc1nc(-c3ccc(F)cc3)cn12 (configuration not stated) 11.2 µM [activator, single point], CSc1ccc(C#N)cc1NC(=O)c1cccc(Cl)c1 5.62 µM [activator, full curve, poor fit], COc1ccc(/C=C/C(=O)c2ccc(NC3=NCCCS3)cc2)cc1OC 11.2 µM [activator, single point], N#CC1=C(N)Oc2n[nH]c(-c3cccs3)c2C1c1cccs1 (configuration not stated) 31.6 µM [activator, partial curve, poor fit], COc1ccc2[nH]c(=O)c(CN(Cc3ccco3)Cc3nnnn3Cc3ccccc3)cc2c1 22.4 µM [activator, single point], CC1(C)NC(C)(C)/C(=C\c2cccs2)C(=O)C1=O 35.5 µM [activator, single point], O=c1nc2c(-c3ccc(F)cc3Cl)n[nH]n2c2ccccc12 2.51 µM [activator, partial curve, poor fit], Cc1c(C(=O)NCc2ccco2)oc2c(F)cccc12 1.58 µM [activator, partial curve, poor fit], COc1cccc(-c2nc(NCCN3CCOCC3)c3ccccc3n2)c1O 14.1 µM [activator, partial curve, poor fit], COc1cc(SSc2cc(OC)cc([N+](=O)[O-])c2N)c(N)c([N+](=O)[O-])c1 10 µM [activator, partial curve], O=C(COC(=O)c1ccccc1NC(=O)c1ccco1)NC1CCS(=O)(=O)C1 (configuration not stated) 35.5 µM [activator, partial curve, poor fit], COC(=O)c1sccc1NC(=O)/C=C/c1ccc(Cl)cc1Cl 3.16 µM [activator, partial curve, poor fit], COc1ccc([N+](=O)[O-])cc1-c1[nH]c(-c2ccc(C(=O)O)cc2)nc1-c1ccccc1 22.4 µM [activator, single point], O=C(Nc1nc2ccc(F)cc2s1)c1cccs1 2.82 µM [activator, full curve, poor fit], CC(=O)c1cc(NC(=O)c2ccc(C)cc2)c(=O)oc1C 17.8 µM [activator, partial curve, poor fit], COC(=O)Nc1sc2c(c1C(=O)NCc1ccco1)CCC2 2 µM [activator, full curve, poor fit], CCOc1ccc2nc(Nc3nc4ccc(NC(C)=O)cc4s3)sc2c1 22.4 µM [activator, single point], CC(=O)c1cccc(NC(=O)c2c(F)c(F)c(F)c(F)c2F)c1 22.4 µM [activator, single point], CCOc1ccc(NC(=O)C(c2ccccn2)N(C(=O)CCl)c2ccc(OCC)cc2)cc1 (configuration not stated) 17.8 µM [activator, single point], CC(C)c1ccc2oc(-c3cc(N)ccc3O)nc2c1 0.562 µM [activator, full curve, poor fit], Oc1cc2c(cc1C(c1ccc(Br)cc1)N1CCCC1)OCO2 (configuration not stated) 35.5 µM [activator, partial curve, poor fit], Cc1cc2nc(-c3ccc(=O)[nH]c3)n(Cc3ccccc3)c2cc1C 22.4 µM [activator, single point], O=C(NCCO)c1ccc2nc(-c3ccco3)c(-c3ccco3)nc2c1 12.6 µM [activator, partial curve], CC1=NN(c2ccccc2)C(=O)C1C=Nc1ccccc1O (configuration not stated) 3.98 µM [activator, single point], CCCN1C(=O)S/C(=C\c2ccc(N3CCOCC3)o2)C1=O 31.6 µM [activator, single point], COc1cc(/C=C2/CCc3ccccc3C2=O)cc(OC)c1OC 22.4 µM [activator, single point]

Potency, active:
COC(=O)c1ccccc1NC(=O)COc1ccccc1[N+](=O)[O-] 5.01 µM, C#CCn1c(=NC(=O)c2ccco2)sc2cccc(Cl)c21 3.98 µM, CCOC(=O)c1c(C)nc(-c2ccccc2)nc1N 12.6 µM, C/C(=C\C(=O)c1ccncc1)Nc1ccccc1O 14.1 µM, O=c1cc(COc2ccccc2[N+](=O)[O-])nc2sccn12 8.91 µM
